The record followed here is the BET-seq Pho4 binding data (Le et al. 2018).

The other results are listed elsewhere or left out. Values were computed here from the reads of four pooled replicates and scatter widely.

The target in the assay is T1, Pho4 (S. cerevisiae) (UniProt P07270).
T1 sequence: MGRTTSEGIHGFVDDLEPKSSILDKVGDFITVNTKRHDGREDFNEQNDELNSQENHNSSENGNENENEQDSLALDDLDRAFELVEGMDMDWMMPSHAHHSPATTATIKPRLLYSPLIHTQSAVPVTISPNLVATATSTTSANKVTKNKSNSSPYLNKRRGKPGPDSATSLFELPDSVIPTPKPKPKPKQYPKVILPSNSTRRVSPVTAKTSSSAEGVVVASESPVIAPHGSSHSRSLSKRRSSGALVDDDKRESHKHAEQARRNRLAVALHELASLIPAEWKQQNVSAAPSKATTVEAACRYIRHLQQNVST
As to the kind of experiment: relative binding free energy (BET-seq); higher = weaker binding. The note with it: reference: library average.
Turning to GGCAGCACGTGTCGGG, the “relative binding free energy” value is -0.15 kcal/mol. To TATGTCACGTGAGAAT belongs 0.22 kcal/mol. On to TTGTACACGTGCGTTA, for which the “relative binding free energy” value stood at 0.09 kcal/mol.

Regarding TGGATCACGTGTTGTG, the “relative binding free energy” value stood at 0.19 kcal/mol. With AATATCACGTGGTGTG, the “relative binding free energy” value turned out to be 0.05 kcal/mol. As for TGGCGCACGTGATATT, the “relative binding free energy” value amounted to 0.15 kcal/mol. Regarding GTGGTCACGTGTGACA, the “relative binding free energy” value was determined as 0.1 kcal/mol. Under CATGGCACGTGTTTTG stands 0 kcal/mol; under TTAGTCACGTGGAAAT, 0.28 kcal/mol. On to AATGGCACGTGAGAAT, for which the “relative binding free energy” value turned out to be 0.2 kcal/mol.

GGATGCACGTGTAGAA: the “relative binding free energy” value came to 0.08 kcal/mol. Turning to AATGGCACGTGATATG, the “relative binding free energy” value was -0.09 kcal/mol. Take TTTGTCACGTGTTTTC: the “relative binding free energy” value stood at 0.02 kcal/mol. As for GATGCCACGTGGGTGT, the “relative binding free energy” value was -0.18 kcal/mol. Under TCTGGCACGTGGATTG stands -0.06 kcal/mol; under TTGGACACGTGATATA, 0.24 kcal/mol; under GTTTACACGTGACGTT, 0.32 kcal/mol. For the sequence CTGATCACGTGGGGGG, the “relative binding free energy” value is -0.03 kcal/mol.

Regarding AATTTCACGTGTGATT, the “relative binding free energy” value was found to be 0.36 kcal/mol. Under GGTCGCACGTGCTGTT stands -0.15 kcal/mol; under CGTATCACGTGTAGGT, 0.19 kcal/mol; under ATGTTCACGTGTGGCT, 0.27 kcal/mol. As for GTACTCACGTGTGAGT, the “relative binding free energy” value was 0.15 kcal/mol. Turning to GAATACACGTGATTGG, the “relative binding free energy” value came to 0.34 kcal/mol. For the sequence GTTGTCACGTGATTCG, the “relative binding free energy” value is 0.14 kcal/mol. In the case of GTGCACACGTGTGCGG, the “relative binding free energy” value came out at 0.06 kcal/mol. For GGTGGCACGTGAGTAA, the “relative binding free energy” value came out at 0.08 kcal/mol.

Consider TAAGGCACGTGGGGGG, for which the “relative binding free energy” value is -0.2 kcal/mol. With TGGTTCACGTGGAACG, the “relative binding free energy” value is 0.32 kcal/mol. With CGAGGCACGTGATGTG, the “relative binding free energy” value was found to be 0.03 kcal/mol. With GTTTTCACGTGAGGAT, the “relative binding free energy” value is 0.49 kcal/mol. For ACGGACACGTGTGAGG, the “relative binding free energy” value was 0.06 kcal/mol. For CGGTACACGTGTGTTC, the “relative binding free energy” value is 0.19 kcal/mol. Regarding CAGATCACGTGAGTGG, the “relative binding free energy” value turned out to be 0.34 kcal/mol. For the sequence AGATTCACGTGTAAGT, the “relative binding free energy” value was 0.29 kcal/mol. As for GTGTGCACGTGGAATC, the “relative binding free energy” value was determined as 0.11 kcal/mol.

For the sequence AGATACACGTGGGTCT, the “relative binding free energy” value was -0.04 kcal/mol.

Consider GGTGACACGTGGGCTT, for which the “relative binding free energy” value is -0.14 kcal/mol. With GAGGACACGTGCGTGG, the “relative binding free energy” value was -0.04 kcal/mol.

Consider ATAAGCACGTGGGGGA, for which the “relative binding free energy” value is -0.13 kcal/mol.

As to TTAAACACGTGTGGAT, the “relative binding free energy” value came to 0.13 kcal/mol. On to CATTGCACGTGGTTAG, for which the “relative binding free energy” value is -0.05 kcal/mol.

As for AGTGACACGTGGGCGG, the “relative binding free energy” value is -0.24 kcal/mol. For GGGTTCACGTGCGAAG, the “relative binding free energy” value worked out at 0.25 kcal/mol.

On to AGTAACACGTGGTTTT, for which the “relative binding free energy” value is -0.03 kcal/mol. Turning to CGTAGCACGTGTAGGT, the “relative binding free energy” value was 0.03 kcal/mol. Take ATTTGCACGTGGACGT: the “relative binding free energy” value amounted to 0.03 kcal/mol. For TAGGTCACGTGTGCGT, the “relative binding free energy” value came out at 0.08 kcal/mol. Turning to ATAAGCACGTGTTAGG, the “relative binding free energy” value was -0.27 kcal/mol. On to TCAGTCACGTGGGGCG, for which the “relative binding free energy” value was -0.21 kcal/mol. To CGGATCACGTGAAGGG belongs 0.44 kcal/mol; to GAGGCCACGTGTGTGT, -0.01 kcal/mol. As to TGCGGCACGTGGCGTT, the “relative binding free energy” value was -0.11 kcal/mol. To GTTGTCACGTGTTCTT belongs 0.31 kcal/mol. Under AGGTCCACGTGGTGTA stands -0.19 kcal/mol; under TTATCCACGTGTTTTG, 0.05 kcal/mol; under ATTATCACGTGAGAGT, 0.28 kcal/mol. As for TTTATCACGTGTGTAC, the “relative binding free energy” value was found to be 0.07 kcal/mol. Consider TGAGACACGTGTGGTA, for which the “relative binding free energy” value came to 0.01 kcal/mol. For CTTTTCACGTGGTGAG, the “relative binding free energy” value was 0.11 kcal/mol. Turning to AGGCGCACGTGATGTT, the “relative binding free energy” value came to 0.14 kcal/mol. Under TTCGTCACGTGAAGGG stands 0.24 kcal/mol. As for ATGATCACGTGGGGCA, the “relative binding free energy” value came to 0.08 kcal/mol. Regarding TCTAGCACGTGTGTTT, the “relative binding free energy” value is -0.03 kcal/mol. TGGTTCACGTGGCGAC: the “relative binding free energy” value stood at 0.2 kcal/mol. In the case of AGTAGCACGTGGCAGT, the “relative binding free energy” value was -0.12 kcal/mol.

With GCTATCACGTGTTTTG, the “relative binding free energy” value is 0.13 kcal/mol. Turning to TAAGACACGTGATGGT, the “relative binding free energy” value worked out at 0.19 kcal/mol. For GGGGGCACGTGTTTCA, the “relative binding free energy” value is -0.1 kcal/mol. For the sequence TATGACACGTGTTAGT, the “relative binding free energy” value was -0.03 kcal/mol. For CAGATCACGTGTGAGG, the “relative binding free energy” value came to 0.21 kcal/mol.

With AGGCGCACGTGGTGAT, the “relative binding free energy” value was -0.05 kcal/mol.

Turning to CTAGTCACGTGGGGGC, the “relative binding free energy” value was found to be 0 kcal/mol. Turning to TTAGTCACGTGTAGAA, the “relative binding free energy” value was 0.21 kcal/mol. Turning to TTGGGCACGTGAGTAA, the “relative binding free energy” value is 0.19 kcal/mol. To TTATGCACGTGCTATA belongs -0.02 kcal/mol; to TGCGGCACGTGGTGCG, -0.25 kcal/mol. Take TAATTCACGTGACGTT: the “relative binding free energy” value came to 0.33 kcal/mol. For TAATGCACGTGAGCGT, the “relative binding free energy” value worked out at 0.13 kcal/mol.

In the case of TCGATCACGTGTGAGG, the “relative binding free energy” value stood at 0.17 kcal/mol. For the sequence AGAGGCACGTGGAGTG, the “relative binding free energy” value was -0.15 kcal/mol.

As to TTTGGCACGTGGTTAG, the “relative binding free energy” value was -0.13 kcal/mol. On to TGTAGCACGTGGCTTT, for which the “relative binding free energy” value is -0.25 kcal/mol.

For the sequence TTCGGCACGTGGTCTG, the “relative binding free energy” value was -0.12 kcal/mol. Regarding TGCTTCACGTGAAGGG, the “relative binding free energy” value stood at 0.37 kcal/mol. To GTGCGCACGTGGTTTA belongs -0.06 kcal/mol; to CTGTACACGTGGGAGT, 0.08 kcal/mol; to GGGGCCACGTGTGGGC, 0.02 kcal/mol. AGTACCACGTGGGAGT: the “relative binding free energy” value was -0.08 kcal/mol. To GAATGCACGTGGCGGG belongs 0 kcal/mol. To CGGTGCACGTGGTGTT belongs -0.19 kcal/mol; to CGATTCACGTGCGGTT, 0.18 kcal/mol. Take CTGTGCACGTGTAGGG: the “relative binding free energy” value is -0.03 kcal/mol. Turning to GTTCACACGTGTGGGC, the “relative binding free energy” value is 0.22 kcal/mol. As to TGCTTCACGTGTTTCT, the “relative binding free energy” value came to 0.27 kcal/mol. To GTCGACACGTGGGGCG belongs -0.12 kcal/mol.

Regarding GGTGTCACGTGAAGCG, the “relative binding free energy” value stood at 0.25 kcal/mol. Under TGCAGCACGTGCTTGG stands -0.12 kcal/mol; under GTGCGCACGTGGGTAT, -0.19 kcal/mol; under GGGGGCACGTGTTATC, 0.01 kcal/mol. In the case of TGCGTCACGTGTGAAT, the “relative binding free energy” value turned out to be 0.22 kcal/mol. TTATTCACGTGTAAAG: the “relative binding free energy” value turned out to be 0.4 kcal/mol.

For TTTCCCACGTGGTTTG, the “relative binding free energy” value is -0.09 kcal/mol. Turning to TGTGGCACGTGTGAGC, the “relative binding free energy” value was -0.01 kcal/mol. Consider TGCGGCACGTGATATT, for which the “relative binding free energy” value turned out to be 0 kcal/mol. AGTGGCACGTGCGGGC: the “relative binding free energy” value was -0.16 kcal/mol. Regarding ATGGTCACGTGGTGTG, the “relative binding free energy” value was determined as 0 kcal/mol. Regarding GTTGTCACGTGTGTGC, the “relative binding free energy” value turned out to be 0.28 kcal/mol. Take GGTGACACGTGAAGGC: the “relative binding free energy” value was 0.43 kcal/mol. TTCACCACGTGTTTTG: the “relative binding free energy” value came to 0.09 kcal/mol. Under TTGAGCACGTGCAGTT stands -0.04 kcal/mol; under TTGGCCACGTGTATTA, -0.03 kcal/mol. To ATTGGCACGTGACGAT belongs 0.13 kcal/mol; to GGGAGCACGTGTTAGG, -0.12 kcal/mol.

As to GGTGTCACGTGTGACG, the “relative binding free energy” value came out at 0.2 kcal/mol.
